The campaign covered roughly 410,000 compounds. About 6,400 (1.6%) were called active. Inconclusive means that the source gave no clear call. Such entries were picked first, then a sample of the others. Calls follow the shape of the dose curve; as a rule, active = well fitted inhibition curve with a large enough effect; inconclusive = small, poorly fitted or top-dose-only effect; inactive = no such curve, though single readings can be large or run the other way. No potency is given beside an inconclusive call; the fits are too rough.
biological target: Glucagon-like peptide 1 receptor (Homo sapiens) (UniProt P43220); assay: qHTS of GLP-1 Receptor Inverse Agonists (Inhibition Mode); conditions: HEK293 GLP-1R CRE-luciferase, luminescence, 24 h, GLP-1R form is constitutively active; series mostly up to 38.3 µM; also: nearly all actives have a fitted effect of over 55% in size
Chain of UniProt P43220 (P43220 whole entry, looked up): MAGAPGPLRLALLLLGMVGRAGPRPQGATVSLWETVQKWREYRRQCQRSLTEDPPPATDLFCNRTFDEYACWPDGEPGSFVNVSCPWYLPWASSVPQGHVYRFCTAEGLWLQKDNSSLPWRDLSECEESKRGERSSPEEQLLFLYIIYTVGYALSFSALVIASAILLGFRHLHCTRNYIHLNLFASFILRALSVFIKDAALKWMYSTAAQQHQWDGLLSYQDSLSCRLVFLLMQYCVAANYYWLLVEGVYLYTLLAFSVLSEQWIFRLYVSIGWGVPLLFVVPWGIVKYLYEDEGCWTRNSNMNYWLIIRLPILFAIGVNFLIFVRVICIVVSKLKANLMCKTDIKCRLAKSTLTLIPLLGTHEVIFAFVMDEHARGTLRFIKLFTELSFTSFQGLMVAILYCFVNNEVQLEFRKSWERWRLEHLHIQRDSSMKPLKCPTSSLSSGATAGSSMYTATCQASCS
How it was run: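 Seeding at 200 cells/uL, 12 h culture, 24 hr compound treatment, then luciferase reagent and a luminescence read; cells are HEK293 stably expressing a constitutively active GLP-1R plus cAMP-responsive luciferase.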
Potency is read from the fitted curve at half-maximal effect; tags tell the direction and shape of the fitted curve.

Row | Structure (SMILES) | Potency
1 | CN(C)c1ccc(C(CNC(=O)c2ccccc2F)c2c[nH]c3ccccc23)cc1 (configuration not stated) | inconclusive [inhibitor, partial curve, poor fit]
2 | CCOC(=O)c1c(-c2ccc(-c3ccccc3)cc2)csc1NC(=O)CNCCN(C)C | active: 10 µM
3 | Cc1cc2n(n1)CCC(=O)N2Cc1ccc(C(=O)Nc2ccc(F)cc2F)cc1 | inconclusive [inhibitor, single point]
4 | CCOC(=O)c1ccc(N2C(=O)c3[nH]nc(-c4ccc(OCC)cc4)c3C2c2cccs2)cc1 (configuration not stated) | inconclusive [inhibitor, partial curve, poor fit]
5 | COc1ccc(NC(=O)c2sc3nc4c(c(-c5ccc(OC)cc5)c3c2N)C(=O)CC(C)(C)C4)cc1 | inactive
6 | CCCCCOC(=O)Cc1c(O)c2ccccc2[nH]c1=O | inactive
7 | Cc1cc(-c2ccc(S(=O)(=O)N3CCN(c4ccc(Cl)cc4)CC3)s2)on1 | inactive
8 | O=C(O)C1=C(C(=O)O)C2C=CC1C2 | inactive
9 | CC(C)N(Cc1ccccc1)C(=O)C1CCCN(c2ncnc3onc(-c4ccc(F)cc4)c23)C1 (configuration not stated) | inconclusive [inhibitor, partial curve, poor fit]
10 | COc1ccc(Cl)cc1NC(=O)C(C)N(C)Cc1cccc(Cl)c1Cl (configuration not stated) | inconclusive [inhibitor, partial curve, poor fit]
11 | O=C(NC1CCSc2ccccc21)c1ccccc1Cl (configuration not stated) | inconclusive [inhibitor, single point]
12 | CC(=O)Nc1ccc(NC(=O)C2(c3cccs3)CCOCC2)cc1 | inactive
13 | Cc1ccc(-n2c(C)cc(C)c(C#N)c2=O)cc1Cl | inconclusive [inhibitor, partial curve, poor fit]
14 | Cc1ccc(S(=O)(=O)NNc2nc3ccccc3nc2C(F)(F)F)cc1 | inactive
15 | Cc1cc(NC(=S)NC(=O)c2ccco2)c2ccccc2n1 | inactive
16 | OC[C@@H]1CN(Cc2ccc(-c3ccccc3)cc2)C[C@H](n2cnc3c(NC4CCC4)ncnc32)O1 | inconclusive [inhibitor, partial curve, poor fit]
17 | O=C(COC(=O)c1ccccc1Sc1ccc(C(F)(F)F)cc1[N+](=O)[O-])NC(=O)NC1CCCC1 | inconclusive [inhibitor, partial curve, poor fit]
18 | COC(=O)c1cc2oc3ccccc3c2n1Cc1nc(-c2cccc(C)c2)oc1C | inactive
19 | CCOC(=O)[C@]12CCC=C1N(Cc1cccc3ccccc13)C(=O)[C@H](CC(=O)NCCCN1CCCC1=O)C2 | inactive
20 | COCCN1C(=O)c2oc3ccc(C)cc3c(=O)c2C12C(=O)N(C)c1ccccc12 (configuration not stated) | inactive
21 | Cc1cc(NC(=O)C2Oc3ccccc3OC2C)no1 (configuration not stated) | inactive
22 | O=C(Nc1ccc(Oc2cccc(C(F)(F)F)c2)nc1)c1ccco1 | inconclusive [inhibitor, single point]
23 | COc1ccc(N2CCN(C(=O)c3ccc(CNS(=O)(=O)c4cc(C)ccc4C)cc3)CC2)cc1 | inconclusive [inhibitor, partial curve]

Row | Structure (SMILES) | Potency
24 | Nc1nc(SCc2ccccc2Cl)ns1 | inconclusive [inhibitor, single point]
25 | COc1cccc2cc(C(C)N(CCCN3CCOCC3)C(=S)Nc3cccc(C)c3)oc12 (configuration not stated) | inconclusive [inhibitor, single point]
26 | COc1ccc(CNC(=O)Cn2c(=O)ccc3cc(S(=O)(=O)N4CCCC4)ccc32)cc1 | inactive
27 | Cn1nc(C(C)(C)C)cc1C(=O)N1CCCCC1c1cc(C(=O)Nc2ccc3c(c2)OCO3)no1 (configuration not stated) | inconclusive [inhibitor, partial curve]
28 | CC1Sc2ccc(C(=O)Nc3ccc(S(=O)(=O)N(C)C)cc3)cc2NC1=O (configuration not stated) | inconclusive [inhibitor, partial curve, poor fit]
29 | COc1ccnc(Oc2cccc(C(F)(F)F)c2)c1C(=O)N/C=N/OCc1ccccc1F | inconclusive [inhibitor, single point]
30 | CCOC(=O)N1CCN(C(=O)CSc2ccc(C(F)(F)F)cc2[N+](=O)[O-])CC1 | inconclusive [inhibitor, single point]
31 | Cc1cc(C)cc(C(O)c2ncc(-c3ccccc3Cl)[nH]2)c1 (configuration not stated) | inconclusive [inhibitor, single point]
32 | COc1cccc2sc(NNC(=O)c3nc4ccccc4s3)nc12 | inconclusive [inhibitor, single point]
33 | COc1ccc(CCC(C)NC2CCCCCCC2)cc1 (configuration not stated) | inconclusive [inhibitor, partial curve, poor fit]
34 | Cc1c(C(=O)N2CCC(C)CC2)c(S(=O)(=O)Nc2cccc(C(F)(F)F)c2)c(C)n1C | inconclusive [inhibitor, single point]
35 | COc1ccc(OC)c(CCNC(=O)c2cnn(-c3ccc(C)cc3C)c2C2CCN(C(=O)OC(C)(C)C)CC2)c1 | inconclusive [inhibitor, single point]
36 | O=C(N/N=C/c1ccc(-c2cccc(C(F)(F)F)c2)o1)c1ccccc1Br | inconclusive [inhibitor, single point]
37 | CCn1nnc2cc(C(=O)Nc3ccc(C)c(Cl)c3)ccc21 | inactive
38 | CC1=C(C(=O)OC2CCCCC2)C(c2ccco2)C2=C(CC(C)(C)CC2=O)N1 (configuration not stated) | active: 8.91 µM
39 | COc1ccccc1-n1c(SCC(=O)N(C)C2CCS(=O)(=O)C2)nc2ccccc2c1=O (configuration not stated) | inactive
40 | O=C(Nc1ccc(Cl)cn1)c1cc2ccccc2o1 | inconclusive [inhibitor, single point]
41 | O=c1oc2cccnc2n1CCS(=O)(=O)c1ccc(F)cc1 | inactive
42 | O=C(CSc1ccc2c(c1)OCCO2)N1CCN(c2ccccc2O)CC1 | inconclusive [inhibitor, single point]
43 | CCOC(=O)c1cnn(-c2ccccc2)c1-c1ccccc1 | inconclusive [inhibitor, partial curve]
44 | CN(C)S(=O)(=O)c1cccc(NC(=O)c2ccccc2OCc2ccc(F)cc2)c1 | inconclusive [inhibitor, partial curve, poor fit]
45 | CC(=O)C(C(c1ccccc1)N1CCCc2ccccc21)N1CCOCC1 (configuration not stated) | inconclusive [inhibitor, single point]
46 | CCOCCCNC(=O)C(NC(=O)c1ccc(NC(C)=O)cc1)c1ccc(C)cc1 (configuration not stated) | inconclusive [inhibitor, partial curve, poor fit]

Row | Structure (SMILES) | Potency
47 | Cc1ccc(F)cc1CNC(=O)c1cc(COc2ccc3ncccc3c2)on1 | inconclusive [inhibitor, full curve]
48 | Cc1cccc(OCCn2c(NC(=O)c3ccco3)nc3ccccc32)c1 | inconclusive [inhibitor, single point]
49 | CC(/C=C1\SC(=S)N(NS(=O)(=O)c2ccc(C)cc2)C1=O)=C\c1ccccc1 | inconclusive [inhibitor, partial curve, poor fit]
50 | CSc1[nH]c(=O)c(C(=O)O)cc1C#N | inactive
51 | CC1Cc2ccccc2N1S(=O)(=O)c1nnc(NC(=O)c2cccc(F)c2)s1 (configuration not stated) | inconclusive [inhibitor, partial curve, poor fit]
52 | COc1ccccc1C(CNC(=O)c1cccc(NS(=O)(=O)c2ccc(Br)cc2)c1)N(C)C (configuration not stated) | active: 10 µM
53 | Oc1ccc(C[C@@H]2CNCCN2CCCCC2CCCCC2)cc1 | inconclusive [inhibitor, partial curve, poor fit]
54 | CCn1c(=O)cc(SCC(=O)NCCCN2CCN(c3ccc(F)cc3)CC2)c2ccccc21 | inactive
55 | CCCn1c(=S)[nH]c2cc(Cl)ccc21 | inactive
56 | Cc1cccc(NC(=O)COC(=O)c2ccccc2-c2nc3ccccc3s2)c1C | inconclusive [inhibitor, partial curve, poor fit]
57 | COc1cccc(Oc2ccc(C(F)(F)F)cc2NC(=O)CN2C(=O)NC3(CCCC3)C2=O)c1 | inconclusive [inhibitor, partial curve]
58 | COc1cc([N+](=O)[O-])cc(/C=N/NC(=O)C(C)Nc2ccccc2C)c1O (configuration not stated) | inconclusive [inhibitor, single point]
59 | Cc1c(-c2ccccc2)nc2ccccc2c1C(=O)Nc1ccncc1 | inconclusive [inhibitor, partial curve, poor fit]
60 | O=C(Nc1sc2c(c1C(=O)Nc1cccc(Cl)c1)CCCC2)c1cccs1 | inactive
61 | Cn1c(=O)c(=O)n(C)c2cc(N3CCCC3)c(NC(=O)c3ccccc3F)cc21 | inactive
62 | Cc1c(Cl)ccc2c(C(=O)Nc3cc(C(C)(C)C)on3)cc(-c3ccccn3)nc12 | inconclusive [inhibitor, full curve, poor fit]
63 | CCC(=O)N1CCc2cc(CNC(=O)c3ccc(OC)cc3)ccc21 | inactive
64 | O=Cc1ccccc1OCc1nnsc1Cl | inconclusive [inhibitor, single point]
65 | Cc1ccc(NC(=O)N2CCN(c3ccc(Cl)c(Cl)c3)CC2)cc1 | inconclusive [inhibitor, partial curve, poor fit]
66 | Cc1ccc(O)c(C(=O)CC(=O)c2ccc(Cl)cc2)c1 | inconclusive [inhibitor, single point]
67 | CC(=O)Nc1ccc(CN2CCC2(C)C(=O)NC2CCN(Cc3ccccc3)CC2)cc1 (configuration not stated) | inactive

— PubChem BioAssay AID624417 (National Center for Advancing Translational Sciences (NCATS), 2012)
